Measured values as given in the GPR68 mutational scans of Howard et al. (2025).
Scores whose standard error is large were omitted. Not listed are two conditions whose scores span a narrow range. Read del as a deletion of the residues named and ins as an insertion between two positions. For some of these results: The concentration of ogerin is not given here.

B1: GPR68, Q15743 (parent)
chain: MGNITADNSSMSCTIDHTIHQTLAPVVYVTVLVVGFPANCLSLYFGYLQIKARNELGVYLCNLTVADLFYICSLPFWLQYVLQHDNWSHGDLSCQVCGILLYENIYISVGFLCCISVDRYLAVAHPFRFHQFRTLKAAVGVSVVIWAKELLTSIYFLMHEEVIEDENQHRVCFEHYPIQAWQRAINYYRFLVGFLFPICLLLASYQGILRAVRRSHGTQKSRKDQIQRLVLSTVVIFLACFLPYHVLLLVRSVWEASCDFAKGVFNAYHFSLLLTSFNCVADPVLYCFVSETTHRDLARLRGACLAFLTCSRTGRAREAYPLGAPEASGKSGAQGEEPELLTKLHPAFQTPNSPGSGGFPTGRLA

Legend:
[1] = variants of: B1; assay: cAMP reporter score (Enrich2 score, wild type = 0); higher = more signal; HEK293T, FACS bins
[2] = variants of: B1; assay: surface expression score (Enrich2 score, wild type = 0); higher = more signal; HEK293T, FACS bins

## MGNITADNSSMSCTIDHTIHQTLAPVVYVTVLVVGFPANCLSLYFGYLQIKARNELGVYLCNLTVADLFYICSLPFWLQYVLQHDNWSHGDLSCQVCGILLYENIYISVGFLCCISVDRYLAVAHPFRFHQFRTLKAAVGVSVVIWAKELLTSIYFLMHEEVIEDENQHRVCFEHYPRQAWQRAINYYRFLVGFLFPICLLLASYQGILRAVRRSHGTQKSRKDQIQRLVLSTVVIFLACFLPYHVLLLVRSVWEASCDFAKGVFNAYHFSLLLTSFNCVADPVLYCFVSETTHRDLARLRGACLAFLTCSRTGRAREAYPLGAPEASGKSGAQGEEPELLTKLHPAFQTPNSPGSGGFPTGRLA [I178R]
[1]; pH 5.5
  cAMP reporter score: -1.3
[1]; pH 6
  cAMP reporter score: -1.53
[1]; pH 6, modulator: ogerin
  cAMP reporter score: -0.94
[1]; pH 6.5, modulator: ogerin
  cAMP reporter score: -1.8
[2]
  surface expression score: -1.76

## MGNITADNSSMSCTIDHTIHQTLAPVVYVTVLVVGFPANCLSLYFGYLQIKARNELGVYLCNLTVADLFYICSLPFWLQYVLQHDNWSHGDLSCQVCGILLYENIYISVGFLCCISVDRYLAVAHPFRFHQFRTLKAAVGVSVVIWAKELLTSIYFLMHEEVIEDENQHRVCFEHYPSQAWQRAINYYRFLVGFLFPICLLLASYQGILRAVRRSHGTQKSRKDQIQRLVLSTVVIFLACFLPYHVLLLVRSVWEASCDFAKGVFNAYHFSLLLTSFNCVADPVLYCFVSETTHRDLARLRGACLAFLTCSRTGRAREAYPLGAPEASGKSGAQGEEPELLTKLHPAFQTPNSPGSGGFPTGRLA [I178S]
[1]; pH 5.5
  cAMP reporter score: -0.514
[1]; pH 6
  cAMP reporter score: 0.991
[1]; pH 6, modulator: ogerin
  cAMP reporter score: -0.75
[2]
  surface expression score: -0.968

## MGNITADNSSMSCTIDHTIHQTLAPVVYVTVLVVGFPANCLSLYFGYLQIKARNELGVYLCNLTVADLFYICSLPFWLQYVLQHDNWSHGDLSCQVCGILLYENIYISVGFLCCISVDRYLAVAHPFRFHQFRTLKAAVGVSVVIWAKELLTSIYFLMHEEVIEDENQHRVCFEHYPTQAWQRAINYYRFLVGFLFPICLLLASYQGILRAVRRSHGTQKSRKDQIQRLVLSTVVIFLACFLPYHVLLLVRSVWEASCDFAKGVFNAYHFSLLLTSFNCVADPVLYCFVSETTHRDLARLRGACLAFLTCSRTGRAREAYPLGAPEASGKSGAQGEEPELLTKLHPAFQTPNSPGSGGFPTGRLA [I178T]
[1]; pH 5.5
  cAMP reporter score: 0.662
[1]; pH 6
  cAMP reporter score: 0.279
[1]; pH 6, modulator: ogerin
  cAMP reporter score: 0.762
[1]; pH 6.5, modulator: ogerin
  cAMP reporter score: -0.643
[2]
  surface expression score: 0.201

## MGNITADNSSMSCTIDHTIHQTLAPVVYVTVLVVGFPANCLSLYFGYLQIKARNELGVYLCNLTVADLFYICSLPFWLQYVLQHDNWSHGDLSCQVCGILLYENIYISVGFLCCISVDRYLAVAHPFRFHQFRTLKAAVGVSVVIWAKELLTSIYFLMHEEVIEDENQHRVCFEHYPVQAWQRAINYYRFLVGFLFPICLLLASYQGILRAVRRSHGTQKSRKDQIQRLVLSTVVIFLACFLPYHVLLLVRSVWEASCDFAKGVFNAYHFSLLLTSFNCVADPVLYCFVSETTHRDLARLRGACLAFLTCSRTGRAREAYPLGAPEASGKSGAQGEEPELLTKLHPAFQTPNSPGSGGFPTGRLA [I178V]
[1]; pH 5.5
  cAMP reporter score: -0.485
[1]; pH 6
  cAMP reporter score: 0.095
[1]; pH 6, modulator: ogerin
  cAMP reporter score: -0.627
[1]; pH 6.5, modulator: ogerin
  cAMP reporter score: -0.716
[2]
  surface expression score: -0.46
